Assay [1] has as its target T1, AF33.
T1 construct: also called IL-15; IL15
Kind of assay: ELISA: scFv captured at saturating level on anti-V5, titrated biotinylated AF33 (IL-15 fusion), streptavidin-HRP. (ELISA stands for enzyme-linked immunosorbent assay.)

Assay [2] addresses T2, PDL1-hFc-Avi (Acro Biosystems, PDL-H82F2) (UniProt Q9NZQ7 part only, biotinylated). Kind of assay: ELISA: scFv captured at saturating level on anti-V5, titrated PDL1-hFc-Avi, streptavidin-HRP.
The target in assay [3] is T2, PDL1-hFc-Avi (Acro Biosystems, …). The assay is described as above. The source holds these as a separate data set.
For assay [4], the target named is T1, AF33. Kind of assay: ELISA: scFv captured at saturating level on anti-V5, titrated biotinylated AF33 (IL-15 fusion), streptavidin-HRP. The source holds these as a separate data set.

Read-outs that look alike come from different tables or passages of the source.

B1: AF666 (scFv)
scFv: MSTSTEQKLISEEDLQVQLVQSGAEVKKPGASVKVSCKASGYTFSTYYIHWVRQAPGQGLEWMGWMNPNSGNTGYAQTFQGRVTMTRDTSTSTVYMELSSLRSEDTAVYYCARSLFPTIFGVEVAFDIWGQGTLVTVSSASGGGGSGGGGSGGGGSHAS[about 100 residues not written out]GKPIPNPLLGLDST
On to B1, for which the binding result (with AF33 [1]; in assay [2]) was “binds” in each case.

B2: AF614 (scFv)
scFv: MSTSTEQKLISEEDLQVQLVQSGAEVKKPGASVKVSCKASGYTFTNYYMHWVRQAPGQGLEWMGWMNPNSGNTGYAQKFQGRVTMTRDTSTSTVYMELSSLRSEDTAVYYCARSLFPTIFGVEVAFDIWGQGTLVTVSSASGGGGSGGGGSGGGGSHAS[about 100 residues not written out]GKPIPNPLLGLDST
With B2, the binding result (in assay [3]; with AF33 [4]) was “binds” each time.

Values taken from patent US20240024501A1 (BONUM THERAPEUTICS, published 2024).
